# Assay results published in publication PMC4336329 (PLoS ONE, 2015).
# Screen size: about 310,000 compounds; about 14,000 (4.5%) showed an effect of 50% or more. Effects have a minus sign here. This is one part of the list.
# Target: human ether-à-go-go-related gene (hERG) potassium channel (human, UniProt Q12809)
# Experiment: primary screen, population patch clamp on CHO cells stably expressing hERG
# 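Also: peak tail current of the secondary pulse compared with the same well before compound.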
# Chain of human ether-à-go-go-related gene (hERG) potassium channel (Q12809 whole entry, looked up): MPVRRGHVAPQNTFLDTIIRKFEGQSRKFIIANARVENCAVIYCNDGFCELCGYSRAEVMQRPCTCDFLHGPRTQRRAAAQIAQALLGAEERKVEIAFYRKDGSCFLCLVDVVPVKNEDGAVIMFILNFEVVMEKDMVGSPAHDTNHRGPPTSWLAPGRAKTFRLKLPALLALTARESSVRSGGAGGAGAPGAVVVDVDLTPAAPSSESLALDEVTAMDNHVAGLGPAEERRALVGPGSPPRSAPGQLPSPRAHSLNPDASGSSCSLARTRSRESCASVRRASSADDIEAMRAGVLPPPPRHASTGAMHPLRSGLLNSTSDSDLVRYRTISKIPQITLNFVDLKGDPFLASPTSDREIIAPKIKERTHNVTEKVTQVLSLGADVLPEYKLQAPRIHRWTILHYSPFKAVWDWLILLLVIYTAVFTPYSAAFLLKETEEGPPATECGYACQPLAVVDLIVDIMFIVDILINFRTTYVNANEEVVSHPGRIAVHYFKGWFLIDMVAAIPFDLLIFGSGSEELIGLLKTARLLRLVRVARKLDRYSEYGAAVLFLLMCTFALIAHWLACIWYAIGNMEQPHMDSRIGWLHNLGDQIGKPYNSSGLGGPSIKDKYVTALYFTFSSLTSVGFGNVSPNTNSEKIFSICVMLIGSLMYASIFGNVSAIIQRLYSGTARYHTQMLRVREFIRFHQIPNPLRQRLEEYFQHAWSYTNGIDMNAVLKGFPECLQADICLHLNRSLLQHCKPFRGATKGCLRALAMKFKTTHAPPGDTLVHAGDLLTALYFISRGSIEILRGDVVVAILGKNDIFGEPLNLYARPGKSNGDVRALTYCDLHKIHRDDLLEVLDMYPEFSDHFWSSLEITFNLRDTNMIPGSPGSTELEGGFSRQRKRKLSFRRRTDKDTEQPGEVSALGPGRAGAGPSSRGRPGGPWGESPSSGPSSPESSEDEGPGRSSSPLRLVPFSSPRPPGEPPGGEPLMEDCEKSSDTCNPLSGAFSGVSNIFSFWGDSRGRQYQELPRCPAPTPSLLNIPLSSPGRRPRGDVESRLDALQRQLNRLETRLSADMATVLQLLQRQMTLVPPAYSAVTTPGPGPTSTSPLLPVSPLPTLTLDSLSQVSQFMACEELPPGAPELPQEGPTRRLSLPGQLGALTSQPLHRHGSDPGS
row,SMILES,"hERG current change (%, negative = inhibition) at 10uM [%]"
1,CN(C(=O)COC(=O)CNC(=O)c1ccc(C(C)(C)C)cc1)c1c(N)n(Cc2ccccc2)c(=O)[nH]c1=O,-0.48
2,Cc1ccc(CN2CCc3[nH]c(=O)[nH]c(=O)c3C2)cc1,17.5
3,Cc1cccc(CN2CCN(C(=O)Cc3ccccc3)CC2)c1.O=C(O)C(=O)O,4.99
4,COC(=O)c1ccc(NC(=O)COC(=O)c2nc3nccc(C)n3n2)cc1,-13.9
5,C=CCOc1c(/C=N\NC(N)=O)cccc1OC,10.4
6,O=C(N/C(=C/c1cn(-c2ccccc2)nc1-c1ccccc1)C(=O)N1CCOCC1)c1ccccc1,3.1
7,Nc1ccc(-c2cc(N)n(-c3ccccc3)n2)cc1,0.669
8,C=CCNC(=S)NC(=O)c1oc2ccccc2c1C,20.3
9,CC(C(=O)N(C)C1CCCCC1)N1CCC(C(N)=O)CC1 (stereo not shown),25
10,COC(=O)c1sccc1-n1cccc1C(=O)NCc1ccccc1,13
11,CNC(=S)Nc1ccc(OC(F)(F)F)cc1,5.44
12,COc1ccccc1Nc1nc(N)nc(CSC(=S)N2CCN(c3ccccc3)CC2)n1,6.86
13,Cc1cccc2[nH]c(CN(C)Cc3nc(CC4CC4)no3)nc12,-11.8
14,COc1cc(CNC(C)C23CC4CC(CC(C4)C2)C3)ccc1OCC(=O)NC(C)(C)C.Cl (stereo not shown),-4.99
15,Cc1c(C)c2ccc(OCC(=O)NC(Cc3ccc(Cl)cc3)C(=O)O)cc2oc1=O (stereo not shown),2.67
16,COC(=O)C1=C(c2c(C)noc2C)C[C@@H]2CC[C@H]1N2C(=O)N1CCC(C)CC1,3.62
17,CCCn1c(C2CCCN2c2nc(-c3ccc(OC)cc3)cs2)nc2ccccc21 (stereo not shown),13.2
18,O=C(NC(=S)NCCc1ccc(Cl)cc1)c1ccco1,23.6
19,CC(=O)Nc1ccc(S(=O)(=O)N(CCO)Cc2ccccc2)cc1,8.86
20,NC(=O)CC(NC(=O)Cc1cccc2ccccc12)c1ccc(N2CCCCCC2)c([N+](=O)[O-])c1 (stereo not shown),1.13
21,NC1=NC(c2ccccc2Cl)n2c(nc3ccccc32)N1 (stereo not shown),-4.63
22,CCOc1ccc(NC(=O)CN(C)C(=O)c2ccc3nc(CC)c(CC)nc3c2)cc1OCC,-34.8

row,SMILES,"hERG current change (%, negative = inhibition) at 10uM [%]"
1,CC(=O)c1sccc1NC(=O)c1ccccc1C(=O)O,7.63
2,COc1cccc(CC(=O)OCC(=O)Nc2nnc(-c3ccccc3)o2)c1,-8.21
3,C#CCOCCOCCOCCNc1nc(N2CCN(C(=O)[C@H]([C@@H](C)CC)n3cc(CCCC[NH3+])nn3)CC2)nc(N2CCN(C(=O)[C@H](C)n3cc(CCC(=O)O)nn3)CC2)n1.[Cl-],10.5
4,Nc1cc(C(=O)OCC(=O)N2CCCC2=O)ccc1Cl,7.8
5,O=C(N/N=C/c1ccc(N2CCOCC2)cc1)c1cccs1,16.3
6,C/C(=N/NC(=O)CC(=O)N/N=C(\C)c1ccc([N+](=O)[O-])cc1)c1ccc([N+](=O)[O-])cc1,-28.8
7,CCn1nnc(NC(=O)c2ccc(-c3ccc(Cl)cc3)o2)n1,-53.5
8,CCOC(=O)Cc1csc(NC(=O)/C=C\c2ccccc2Cl)n1,0.187
9,CCN(CC(=O)NCc1cccs1)C(=O)/C=C/c1cc(Br)ccc1OC(F)F,-40.8
10,COc1ccc(Oc2nccc(-c3ccc(F)cc3)c2C#N)cc1,1
11,O=C1c2c(O)cc(O)cc2O[C@@]12c1c(cc(O)c3c1O[C@H](c1ccc(O)cc1)[C@@H](O)C3)O[C@@H]2c1ccc(O)cc1,27.2
12,Cn1c(=O)n(-c2ccccc2)c(=O)c2c3c(sc21)COC(C)(C)C3,0.657
13,CC(C)c1nnc(NC(=O)C2CCN(C(=O)Nc3ccc(Cl)cc3)CC2)s1,1.04
14,NNC(=O)CCCNc1ncc(C(F)(F)F)cc1Cl,5.03
15,O=C(CSc1nnnn1-c1ccccc1)Nc1nsc(-c2ccccc2)n1,-13.9
16,COc1ccc(C(=O)Oc2ccc3c(C)cc(=O)oc3c2C(C)=O)cc1,-8.57
17,O=S(=O)(NCc1ccc(F)cc1)c1ccccc1Br,-2.63
18,CCOc1cc2[nH]c(=S)n(Cc3ccc(C(=O)NCC(OC)OC)cc3)c(=O)c2cc1OCC,-4.98
19,COc1ccccc1-c1nnc(-c2ccc(C)cc2)o1,-33.3
20,O=C(N/N=C/c1ccc(Br)cc1)c1cc[n+](Cc2ccccc2)cc1.[Cl-],-10.7
21,COc1ccc(OC)c(C(=O)c2coc3ccc(O)cc23)c1,-1.61
22,CCc1ccccc1NC(=O)CNCC(=O)Nc1ccccc1CC,12.2

row,SMILES,"hERG current change (%, negative = inhibition) at 10uM [%]"
1,CC(C)Oc1ccc(C(=O)NCc2cccs2)cc1,-13
2,O=C1CN(C(=O)COC(=O)c2ccc(N3CCCCCC3)c([N+](=O)[O-])c2)c2ccccc2N1,5.72
3,CCC1(C)NC(=O)N(CC(=O)Nc2sc3c(c2C(N)=O)CCC3)C1=O (stereo not shown),5.42
4,COc1ccc2oc(C(=O)NCC(c3ccco3)N(C)C)c(C)c2c1 (stereo not shown),-24.3
5,C=CCn1c2ccccc2c2n[nH]c(=S)nc21,7.82
6,CCOC(=O)c1[nH]c(CSc2nnnn2-c2ccccc2C)c(C(=O)OCC)c1C,6.53
7,CC1=NN(c2ccc(N)cc2)C(=O)C1.Cl,-6.68
8,CCCCc1cc(C)c(S(=O)(=O)c2ccccc2C)c(=O)[nH]1,3.69
9,Cc1noc(/C=C/Nc2ccc(F)cc2F)c1[N+](=O)[O-],12.1
10,COc1cccc(C(=O)CSc2nnc(CNc3nc(-c4ccccc4)cs3)n2C)c1,-7.48
11,CN1CCN(NC(=S)NC2CCCC2)CC1,15.7
12,NC(=O)c1ccc(NC(=O)c2cccc3c2OCCCO3)cc1,4.36
13,COc1ccc2nc(N3CCCC(C(=O)NCCCN4CCN(C)CC4)C3)sc2c1 (stereo not shown),1.67
14,COc1ccc(S(=O)(=O)N2CCCC(C(=O)NCc3cccnc3)C2)cc1OC (stereo not shown),-14.9
15,COc1ccc(S(=O)(=O)Nc2nc(C(F)(F)F)cs2)cc1,8.48
16,O=C(CCc1c[nH]c2ccccc12)NCc1ccc2c(c1)OCO2,-12.5
17,COc1ccc(CN2CCNC(=O)C2CC(=O)N(C)Cc2nc(C)cs2)c(OC)c1 (stereo not shown),14.7
18,CC1CCCN(C(=O)CN(C)S(=O)(=O)c2ccc3c(c2)c(=O)n(C)c(=O)n3C)C1 (stereo not shown),-2.37
19,CCc1noc(C)c1C(=O)N1CCCC(CCC(=O)NCc2ccc(F)c(F)c2)C1 (stereo not shown),-0.135
20,CC12CCC(=O)N1C(C(=O)NNC(=O)COc1cccc(C(F)(F)F)c1)CS2 (stereo not shown),1.86
21,O=C(NC(=S)NNC(=O)c1ccccc1O)c1ccc([N+](=O)[O-])cc1,12.8
22,Cc1ccc(CN2CCNC(=O)C2CC(=O)N(Cc2c(C)nn(C)c2C)C2CC2)o1 (stereo not shown),23.9

row,SMILES,"hERG current change (%, negative = inhibition) at 10uM [%]"
1,COc1ccc(N=C2SC(CC(=O)Nc3ccccc3F)C(=O)N2Cc2ccco2)cc1 (stereo not shown),6.8
2,Cc1c(NC(=O)CSc2nnc(-c3cccc(Cl)c3)o2)c(=O)n(-c2ccccc2)n1C,8.33
3,COc1ccc(C(=O)COC(=O)CCc2nc3ccccc3[nH]c2=O)cc1Br,24.4
4,CC(C)C(NC(=O)C1CCCCC1)C(=O)NC1=NCCS1 (stereo not shown),17.8
5,CC1(C)Cc2c(ccc3ccccc23)-c2nnc(-c3cccnc3)n21,-6.37
6,CC(C)c1cccc(C(C)C)c1OCCCCCN1CCOCC1,-17.2
7,COc1ccc(F)cc1S(=O)(=O)N1CC(C)CC(C)C1 (stereo not shown),-15.5
8,Cc1ccc(C)c(N2CCN(C(=O)c3cc(S(=O)(=O)N4CCOCC4)cn3C)CC2)c1,-19
9,O=C(O)COc1ccc(C(=O)c2ccccc2)cc1,4.55
10,Cc1cc(C)c(C)c(S(=O)(=O)Nc2ccc(O)cc2)c1C,-22.6
11,CCC(OC(=O)c1nsc(Cl)c1Cl)C(=O)NC(C)(C)CC (stereo not shown),8.88
12,Cc1ccc(N=Cc2c(O)n(C)c(=O)n(C)c2=O)cc1,5.28
13,CCc1cc2ccccc2nc1SCC(=O)Nc1cc(OC)c(OC)cc1C(=O)O,-2.33
14,COc1cc(NC(=O)C(=O)NCCN2CCNCC2)c(OC)cc1Cl,12
15,C=CCn1c(=O)c2ccccc2n2c(SCC(C)=O)nnc12,-7.97
16,O=C(CN1CCN(CN2C(=O)NC3(CCCCCC3)C2=O)CC1)Nc1cccc(F)c1,8.88
17,COc1ccc2c(C)c(CCC(=O)N3C[C@H]4C[C@@H](C3)c3cccc(=O)n3C4)c(=O)oc2c1,-34.9
18,CCN(CC)S(=O)(=O)c1cccc(NC(=O)COC(=O)C2COc3ccccc3O2)c1 (stereo not shown),-2.71
19,COc1nnc(-c2ccc(C)c(S(=O)(=O)NCCO)c2)c2ccccc12,-14.6
